{
  "source": "patent US20160250303A1",
  "about": "“PERFORIN-2 ACTIVATORS AND INHIBITORS AS DRUG TARGETS FOR INFECTIOUS DISEASE AND GUT INFLAMMATION” (UNIVERSITY OF MIAMI, priority 2013, published 2016)",
  "tested_on": "P-2 mediated bacterial killing",
  "experiment": "Perforin-2 mediated killing of MRSA by BV2 phagocytic cells in vitro (FIG. 14c)",
  "settings": "phagocytic cell BV2, in vitro",
  "data": [
    {"smiles": "NS(=O)(=O)OC[C@@H]1CC(n2ccc3c(N[C@H]4CCc5ccccc54)ncnc32)C[C@@H]1O", "note": "(stereo partly shown) [MLN 4924]", "values": [
      {"measurement": "P-2 mediated bacterial killing", "value": "blocks P-2 mediated bacterial killing in vitro"}
    ]}
  ]
}
